# In PubChem BioAssay AID485364 (National Center for Advancing Translational Sciences (NCATS), 2010):
# The campaign covered roughly 360,000 compounds. About 11,000 (3.1%) were called active. Inconclusive means that the source gave no clear call. Such entries were picked first, then a sample of the others. The call rests on the fitted dose curve; in most records, active means well fitted inhibition curve with a large enough effect; inconclusive means small, poorly fitted or top-dose-only effect; inactive means no such curve, though single readings can be large or run the other way. No potency is given beside an inconclusive call; the fits are too rough.
# Molecular target: Schistosoma mansoni thioredoxin glutathione reductase (TGR) (UniProt Q962Y6)
# Assay: qHTS Assay for the Inhibitors of Schistosoma Mansoni Peroxiredoxins; further: nearly all actives have a fitted effect of over 60% in size
# Settings: purified TGR, DTNB reduction, TNB absorbance 405 nm; activity change, negative = inhibition: at 114 µM (top of the series) unless noted
# Text: Schistosomiasis is a major neglected tropical disease that currently affects over 200 million. It is caused by different species of flatworms, such as Schistosoma mansoni. Over the last century, drugs to treat the disease have evolved from potassium antimonyl tartrate, artemisinin, oxamniquine, to praziquantel, with praziquantel remaining the universally-used single drug of choice over the past three decades. However, transmission rates have changed little with praziquantel, and there is evidence for the development of drug resistant parasites. Because there is currently no suitable alternative therapy available, there is an urgent need to identify new targets and drugs for schistosomiasis treatment. Thioredoxin glutathione reductase (TGR), one uniquely positioned S. mansoni enzyme, has been identified as a major component of the worms' distinct and compressed antioxidant "firewall". TGR is a multifunctional enzyme that catalyzes the interconversion between reduced and oxidized forms of both glutathione (GSH) and thioredoxins, thus making it an attractive new antiparasitic target. Recently, a quantitative high-throughput screen of the NIH Molecular Libraries Small Molecule Repository (MLSMR, ~71K at the time of the screen in 2007) was performed using an assay that targeted both TGR and peroxiredoxin2 (Prx2, an H2O2-reducing enzymatic component of the S. mansoni redox "firewall") by following the decrease of NADPH fluorescence. […] Additional mechanistic link between exogenous NO donation and parasitic injury for the oxadiazole-2-oxide class of compounds was also expanded and better defined. Although the screen addressed both TGR and Prx2, the assay required post-screen target deconvolution for further characterization of the actives. In addition, the fluorescence assay was also subject to fluorescence interference from compound library members. We have developed a 1536-well-based kinetic HTS assay to address TGR alone. The assay followed the reduction of 5, 5'-dithiobis (2-nitrobenzoic acid) (DTNB) (Ellman's reagent) by NADPH and measured the increase in absorbance at 412 nm of the reaction product, TNB. […] This assay format can be used to screen the current MLSMR collection (with >300K compounds available) to find novel TGR inhibitors. Furoxan is a good choice to serve as a positive control in the primary HTS assay.
# Three microliters of reagents (100 uM NADPH and 20 nM TGR or 100 uM NADPH as no-enzyme control) were dispensed into 1,536-well black clear-bottomed plates. Compounds (23 nL) were transferred via Kalypsys pin tool equipped with 1536-pin array (10 nL slotted pins, V&P Scientific, San Diego, CA). The plates were then be incubated for 15 min at room temperature, and 1 uL aliquot of 500 uM NADPH were added, immediately followed by a 1 uL aliquot of 15 mM DTNB to start the reaction. The plate was transferred to a ViewLux high-throughput CCD imager (Perkin-Elmer, Wellesley, MA) where kinetic measurements of the TNB absorbance were acquired using a 405 excitation filter. Throughout the screen, reagent bottles and all liquid lines were made light-tight to minimize reagent degradation. All screening operations were performed on a fully integrated robotic system (Kalypsys, San Diego, CA) containing one RX-130 and two RX-90 anthropomorphic robotic arms (Staubli, Duncan, SC). Library plates were screened starting from the lowest and proceeding to the highest concentration, and a "double-dipping" step of the highest concentration was required to access higher concentrations of compounds. Vehicle-only plates, with DMSO being pin-transferred to the entire column 5-48 compound area, were inserted uniformly at the beginning and the end of each library in order to monitor for and record any shifts in the background, which can be affected by reagent dispensers or loss in enzyme activity overtime. […]
# On the % scale 0 is the no-effect control and ±100 the full control effect; potency means the concentration at half of the fitted maximal effect; tags describe the fitted curve by direction and shape.
Structure (SMILES),Potency,"activity change, negative = inhibition"
Clc1cccc(CSc2nnc(-c3cccnc3)n2Cc2ccco2)c1,"inconclusive [inhibitor, partial curve]",–
COc1ccccc1NC(=O)CN(Cc1ccco1)C(=O)c1ccc(Cl)nc1,"inconclusive [inhibitor, partial curve]",–
COc1ccc(Cn2ccnc2SCC(=O)Nc2nc3ccccc3s2)cc1,–,inactive: -0.79%
CCCCc1nnc(NC(=O)C2CCCO2)s1 (stereo not drawn),–,inactive: -17.5%
Nc1cccc2c1C(=O)N(C(=O)/C=C/c1cccc(F)c1)C2=O,active: 6.31 µM,–
COc1cc(S(=O)(=O)N(Cc2ccccn2)Cc2ccco2)ccc1-n1cnnn1,"inconclusive [inhibitor, partial curve]",–
O=C1CC(N2CCOCC2)C(=O)N1c1cc(Cl)cc(Cl)c1 (stereo not drawn),active: 35.5 µM,–
Oc1c(C(c2ccccn2)N2CCOCC2)ccc2cccnc12 (stereo not drawn),active: 0.794 µM,–
COC(=O)c1cccc(C(=O)Nc2ccc(C)cc2)n1,–,inactive: -8.27%
COC(=O)c1ccc(NC(=O)CSc2ccc(-c3sc(-c4ccccc4)nc3C)nn2)cc1,–,inactive: -10.3%
O=C(CN(Cc1ccco1)S(=O)(=O)c1ccccc1)N/N=C/c1ccccc1C(=O)O,–,inactive: 11.3%
CCN(c1cccc(C)c1)S(=O)(=O)c1ccc(-c2ccc(=O)[nH]n2)o1,"inconclusive [inhibitor, partial curve]",–
CCN(CC)C(=O)c1[nH]cnc1C(=O)N[C@@H](Cc1ccccc1)C(=O)OC(C)(C)C,–,inactive: 3.22%
COC(=O)c1cc(NC(=O)c2ccccc2)c(=O)oc1C/C=N\OCc1ccc(Cl)cc1Cl,"inconclusive [inhibitor, partial curve]",–
O=C(NC1(C(F)(F)F)NC(=O)N(CC2CCCCC2)C1=O)c1ccco1 (stereo not drawn),active: 79.4 µM,–
COc1ccc(CCN(C)C2CC(=O)N(c3ccccc3)C2=O)cc1OC (stereo not drawn),active: 11.2 µM,–
CCC(=NCCN1CCCCC1)c1c(O)n(C)c(=O)n(C)c1=O,"inconclusive [inhibitor, partial curve]",–
CNCCOc1ccccc1OC(C)C,"inconclusive [inhibitor, partial curve]",–
CCCCn1c(=O)c2oc3ccccc3c2n(CC(=O)Nc2ccc(CC)cc2)c1=O,–,inactive: 0.549%
c1ccc(Cn2ncc3c(N4CCN(C(c5ccccc5)c5ccccc5)CC4)ncnc32)cc1,active: 44.7 µM,–
O=C1CN(c2ccccc2)C(=S)N1C(=O)c1ccc(Br)cc1,"inconclusive [inhibitor, partial curve]",–
O=c1c2cc(Br)ccc2nc(-c2ccc(Cl)cc2)n1O,"inconclusive [inhibitor, partial curve]",–
COc1ccccc1-c1ccc(/C=C2/C=C(C)OC2=O)o1,"inconclusive [inhibitor, single point]",–
C=CCOC(=O)c1cc(-c2ccc(/C=C3\C(=O)NC(=O)C(C#N)=C3C)o2)ccc1Cl,active: 7.94 µM,–

Structure (SMILES),Potency,"activity change, negative = inhibition"
COc1ccc(Cn2nnnc2CN(Cc2cc3cc(C)ccc3[nH]c2=O)C2CCCC2)cc1,active: 35.5 µM,–
COc1ccc(C)cc1NC(C)C(=O)NC(=O)NC1CCCCC1 (stereo not drawn),–,inactive: 0.158%
CC(C)n1nc(C(=O)Nc2nnc(C3CC3)s2)c2ccccc2c1=O,"inconclusive [inhibitor, single point]",–
COc1ccc(NC(=O)c2ccc(-c3ccc([N+](=O)[O-])cc3)o2)cc1,"inconclusive [inhibitor, partial curve]",–
N#Cc1ccccc1S(=O)(=O)Nc1ccc2c(c1)C(=O)OC2,–,inactive: 0%
O=C1NC(=O)C(=Cc2ccc(N3CCOCC3)o2)C(=O)N1,"inconclusive [inhibitor, partial curve]",–
O=C(c1ccc2ccccc2c1)C1CCCN(C(=O)CN2C(=O)CSC2=O)C1 (stereo not drawn),–,inactive: 0.182%
CCc1ccc(-n2c(=O)c3c4c(sc3n(Cc3ccccc3C#N)c2=O)CCC4)cc1,–,inactive: -2.2%
CCc1cc2ccc(C)cc2nc1SCC(=O)N1CCN(C(=O)c2ccco2)CC1,active: 39.8 µM,–
COCCCN1C(=O)C(=O)/C(=C(/O)c2ccc(S(=O)(=O)N3CCOCC3)cc2)C1c1ccc(Cl)cc1 (stereo not drawn),"inconclusive [inhibitor, single point]",–
CC(=O)NNC(=S)NC(=O)c1ccccc1,–,inactive: 49.8%
CCOC(=O)c1cnc2ccc(C(=O)OC)cc2c1NCCCN1CCOCC1,"inconclusive [inhibitor, single point]",–
O=C(c1ccco1)N1CCN(C(c2ccccc2)c2nnnn2Cc2cccs2)CC1 (stereo not drawn),"inconclusive [inhibitor, full curve, poor fit]",–
COc1cc([C@@H]2[C@H]3CNCC=C3C(C#N)=C(N)C2(C#N)C#N)ccc1OC(C)C,"inconclusive [inhibitor, partial curve, poor fit]",–
O=C(NC1=NCCS1)C1CCN(S(=O)(=O)c2ccc(Cl)cc2)CC1,active: 50.1 µM,–
COc1ccc(COC(=O)C2CC(=O)N(Cc3ccc(C)cc3)C2)cc1 (stereo not drawn),"inconclusive [inhibitor, full curve, poor fit]",–
O=C(NCCc1ccc(Cl)cc1)c1ccc2nc(CCc3ccccc3)oc2c1,–,inactive: 11.9%
CCOC(=O)C1CCCN(Cc2cc(OC)c(O)c(OC)c2)C1 (stereo not drawn),active: 15.8 µM,–
Cc1ccccc1S(=O)(=O)NC1OC(=O)C(Oc2ccccc2)=C1Br (stereo not drawn),active: 8.91 µM,–
COc1ccc(N2Cc3ccccc3C2=NC(=O)c2cncc(Br)c2)cc1,"inconclusive [inhibitor, full curve]",–
COc1ccc(C2C=C(c3ccccc3)Nc3nnnn32)cc1 (stereo not drawn),–,inactive: -4.83%
Cc1cc(N2CCN(C(=O)c3ccco3)CC2)n2nc(-c3cccc(F)c3)cc2n1,"inconclusive [inhibitor, partial curve]",–
COc1ccc(N(CC(C)C)S(=O)(=O)c2nnc(NC(=O)c3ccco3)s2)cc1,"inconclusive [inhibitor, full curve, poor fit]",–
CN(C)C(CNC(=O)c1cccc(S(=O)(=O)N2CC3(C)CC2CC(C)(C)C3)c1)c1ccco1 (stereo not drawn),active: 25.1 µM,–
